Laboratory results as given in the RNAGym collection of RNA variant scans (doi:10.1101/gad.245936.114).
Variants at the background level are over-represented here.

B1: tRNA (parent)
chain: CUCUCGGUAGCCAAGUUGGUUUAAGGCGCAAGACUUUAAUUUAUCACUACGAAAUCUUGAGAUCGGGCGUUCGACUCGCCCCCGGGAGAUUUUUUCCUCGAGCAA

Variants of: B1
Assay: nonsense suppression (GFP-seq) (ratio to wild type); higher = more function; SUP4oc tRNA, yeast GFP reporter sort-seq
Summary of the method: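 Raffinose/galactose medium with 80 mg/L adenine was used to grow yeast carrying genome-integrated tRNA variants (~3% random-mutation library), RFP, and a galactose-driven GFP ochre reporter. Cells went into GFP/RFP bins, which were Illumina-sequenced, and variants with ≥100 reads and ≥30 cells were scored. Nonsense suppression (GFPSEQ) is the per-bin median GFP/RFP weighted by estimated cell share and expressed relative to the unmutated parent tRNA.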

| Variant | nonsense suppression |
| --- | --- |
| C12G U21C G65C | ≤ 0.026 |
| C12A G26U U63G | ≤ 0.026 |
| C12G C27A G69A G88U | ≤ 0.026 |
| C12A A14G G18U U35C G65A | ≤ 0.026 |
| C12G G15A A87U | ≤ 0.026 |
| C12G C34G | ≤ 0.026 |
| C12A U63C A87C | ≤ 0.026 |
| C12A G61C A89C | ≤ 0.026 |
| C12A G25C A30C A62U | ≤ 0.026 |
| C11U U17C G19U A54C A89G | ≤ 0.026 |
| C12U U55C U57G | ≤ 0.026 |
| C11U U16A A62G | ≤ 0.026 |
| C12A A60C | ≤ 0.026 |
| C12U U70A | 0.048 |
| C12U U63C G78A | ≤ 0.026 |
| C11U G28C A33C G88C | ≤ 0.026 |
| C12A G65U C77A | ≤ 0.026 |
| C11U G18A U55A | ≤ 0.026 |
| C12A G86A A87U | ≤ 0.026 |
| C12A A60G G65A U76G G78C | ≤ 0.026 |
| C12A C34U | 0.94 |
| C12U A13C U20A | ≤ 0.026 |
| C11U C29U | ≤ 0.026 |
| C11U C29G | ≤ 0.026 |

| Variant | nonsense suppression |
| --- | --- |
| C12A A23C G61U | ≤ 0.026 |
| C12G C75A | ≤ 0.026 |
| C12G G69U | ≤ 0.026 |
| C12A G84C | ≤ 0.026 |
| C12A A62G G78A | ≤ 0.026 |
| C11U U70C | ≤ 0.026 |
| C12G A14G G32U U55C G85A G86A | ≤ 0.026 |
| C12A U57G G66C | ≤ 0.026 |
| C11U G84C A89C | ≤ 0.026 |
| C11U C12A A31G C83G | ≤ 0.026 |
| C11U U55G G66C | ≤ 0.026 |
| C12U C77U | ≤ 0.026 |
| C12U A24G G28U | ≤ 0.026 |
| C11U G28U A60C | ≤ 0.026 |
| C12U A31U U63C G65A | ≤ 0.026 |
| C12G G73C | ≤ 0.026 |
| C11U C81A | ≤ 0.026 |
| C12G G32U U57G G69A | ≤ 0.026 |
| C12U G15U | ≤ 0.026 |
| A13C A14C G59A G67C | ≤ 0.026 |
| A13C | 1.13 |
| C11U G32U G69C G85C | ≤ 0.026 |
| C12U U20A U22G A23U | ≤ 0.026 |
| C12U A33G U57G A74G C81U | ≤ 0.026 |

| Variant | nonsense suppression |
| --- | --- |
| C12A C34G A74C | ≤ 0.026 |
| C11U C56U G65C | ≤ 0.026 |
| C12A U35C A60G | ≤ 0.026 |
| C12A G18C | ≤ 0.026 |
| C12U G88U | 0.0717 |
| C12U G18U A30C G84A A89C | ≤ 0.026 |
| C12A U17A A33G U76A C82A | ≤ 0.026 |
| C12G C83A G84U | ≤ 0.026 |
| C11U C27G A74G | ≤ 0.026 |
| C12A A54C A62G U63C C75A C80A | ≤ 0.026 |
| C12U U63C U76A | ≤ 0.026 |
| C12U U63C U76G | ≤ 0.026 |
| C12G G19A | ≤ 0.026 |
| C11U C29G U76G | ≤ 0.026 |
| C12A C64A | ≤ 0.026 |
| C12A G19U | ≤ 0.026 |
| C12U A87C | ≤ 0.026 |
| C12G A23G | ≤ 0.026 |
| C12G A33G C77G C83G G85A | ≤ 0.026 |
| C12U G28C A30G C34A C80G C82G | ≤ 0.026 |
| C12U A33G U57C | ≤ 0.026 |
| C12U A33U | ≤ 0.026 |
| C11U C72G A74U | ≤ 0.026 |
| C11U A74G | ≤ 0.026 |

| Variant | nonsense suppression |
| --- | --- |
| C12A U21G C75G | ≤ 0.026 |
| C11U U58C U70A G86A | ≤ 0.026 |
| C12G A30G | ≤ 0.026 |
| C12G A30C | ≤ 0.026 |
| C12G G32C U58C G59A | ≤ 0.026 |
| C12G C29G A62C | ≤ 0.026 |
| C12U C72G | ≤ 0.026 |
| C12G C56G G65A A74U | ≤ 0.026 |
| C12A A13C U57G G66A | ≤ 0.026 |
| C12G U20C | ≤ 0.026 |
| C11U U21G A60G G88C | ≤ 0.026 |
| C12G U17A U22G A60G G88A | ≤ 0.026 |
| C12A U55C | ≤ 0.026 |
| C11U A60C G66A | ≤ 0.026 |
| C12U C27U A30G A31C | ≤ 0.026 |
| C12A A24G G65C | ≤ 0.026 |
| C12G C27U C75A | ≤ 0.026 |
| C12U G78U G86A | ≤ 0.026 |
| C12A G86C | ≤ 0.026 |
| C11U A62U G73A C82U A89G | ≤ 0.026 |
| C12U G18U U70A C79U | ≤ 0.026 |
| C11U C27U A33G C75A C82G | ≤ 0.026 |
| C12A U17A C27A A31U | ≤ 0.026 |
| C11U U76C G88U | ≤ 0.026 |

| Variant | nonsense suppression |
| --- | --- |
| C12G C27G | ≤ 0.026 |
| C11U U16A G69C C80G G88A | ≤ 0.026 |
| C12G C29G G65C | ≤ 0.026 |
| C12A A13C C27U | ≤ 0.026 |
| C11U U35G G59U A87C | ≤ 0.026 |
| C12U A24U G67C | ≤ 0.026 |
| C12G U16G G19A G59C | ≤ 0.026 |
| C12G G84A A87U | ≤ 0.026 |
| C12G C81G | ≤ 0.026 |
| C11U G18C A24U | ≤ 0.026 |
| C11U G66U A74G | ≤ 0.026 |
| C11U U20C | ≤ 0.026 |
| C12A U63C G69U | ≤ 0.026 |
| C11U C34A G66A | ≤ 0.026 |
| C11U C79A A87C | ≤ 0.026 |
| C12A A23G C81G | ≤ 0.026 |
| C11U G28A A33G | ≤ 0.026 |
| C12A A13U | ≤ 0.026 |
| C12G G32U G73C A74U C80A | ≤ 0.026 |
| C11U G28A A31G A54U C64U C77A | ≤ 0.026 |
| C11U U55C C81G | ≤ 0.026 |
| C12A A23G G25C | ≤ 0.026 |
| C11U C12A G88A | ≤ 0.026 |
| C12A A23C U35A U57C | ≤ 0.026 |

| Variant | nonsense suppression |
| --- | --- |
| C11U U63C C80U | ≤ 0.026 |
| C12U U20G | 0.455 |
| C12A U20C U76A | ≤ 0.026 |
| C12A A23G C27G | ≤ 0.026 |
| C12G A14C C27G U35C U55A | ≤ 0.026 |
| C12A U17C A23G | ≤ 0.026 |
| C12A A62C U76G | ≤ 0.026 |
| C12U A30C | ≤ 0.026 |
| C12G G26U C29U C80A | ≤ 0.026 |
| C12G A23G A54U | ≤ 0.026 |
| C12U G15C C72G C77G | ≤ 0.026 |
| C12U U58G C83G | ≤ 0.026 |
| C11U G15U U17G | ≤ 0.026 |
| C12A C27G A54C | ≤ 0.026 |
| C11U U76A | ≤ 0.026 |
| C12G A33U U57C | ≤ 0.026 |
| C12A C27G | ≤ 0.026 |
| C11U C29U A31G | ≤ 0.026 |
| C12U A23G A54C | ≤ 0.026 |
| C12U G25U G26A G28C G86A A89G | ≤ 0.026 |
| C12A G28U C34U G69C G88C | ≤ 0.026 |
| C11U U55A G61C G88C | ≤ 0.026 |
| C12G A33G | ≤ 0.026 |
| C12G A33U | ≤ 0.026 |

| Variant | nonsense suppression |
| --- | --- |
| C11U C29U U76A | ≤ 0.026 |
| C12U U17G G19U A31C U76G | ≤ 0.026 |
| C12A G69A | ≤ 0.026 |
| C12G G28C U70G G88A | ≤ 0.026 |
| C12A C29A | ≤ 0.026 |
| C12G G15A A33G A89G | ≤ 0.026 |
| C12G A62U | ≤ 0.026 |
| C12G A23G C64G | ≤ 0.026 |
| C12U U76A | 0.244 |
| C11U G69U A74C G78C | ≤ 0.026 |
| C11U C83U | ≤ 0.026 |
| C11U C83G | ≤ 0.026 |
| C11U G61C A87G | ≤ 0.026 |
| C11U G61C A87U | ≤ 0.026 |
| C12A G26C G88A | ≤ 0.026 |
| C11U U63G A74C | ≤ 0.026 |
| C12A U16A G19U G84A | ≤ 0.026 |
| C12A G26C U76C | ≤ 0.026 |
| C12U A24U C83G G88A | ≤ 0.026 |
| C11U U21C G61A A87G | ≤ 0.026 |
| C12U U35C | 0.0352 |
| C12G G84A | ≤ 0.026 |
| C12G G19C G61C G84A | ≤ 0.026 |
